The whole screen tested about 2,700 compounds, of which about 160 (5.9%) showed an effect of 50% or more. The list shows a part of the results.

Results on 39 compounds are retold here after ChEMBL document CHEMBL5606458, “ASAP - ZIKV NS2B-NS3 protease fluorescence single point” (2024).

In this test the target is Nonstructural protein 3 (Zika virus) (UniProt A0A024AXB9).
The mark [1] stands for this setting: PRVABC59, Concentration 50.0 uM, Number of replicates 1.0.
Setting [2] is: PRVABC59, Concentration 15.0 uM, Number of replicates 1.0.
Setting [3] is: PRVABC59, Concentration 10.0 uM, Number of replicates 1.0.

Chain of UniProt A0A024AXB9 (A0A024AXB9 as listed by the source): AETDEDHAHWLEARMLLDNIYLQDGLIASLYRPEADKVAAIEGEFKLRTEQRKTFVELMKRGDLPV

As to `O=Cc1ccc(N2CCC(C(=O)NCCOc3ccc(F)cc3)CC2)cc1`, the inhibition – broadly, the relative decrease from the control value, in per cent – under setting [1] came out at 24.6%. For the compound `Cc1c(C(=O)N2CCC(n3cc(CO)nn3)CC2)[nH]c2cc(Cl)cc(Cl)c12`, the inhibition (PRVABC59, Concentration 49.5 uM, Number of replicates 2.0, Standard deviation 1.4208906347015848 %) amounted to 4.02%; the inhibition (PRVABC59, Concentration 99.01 uM, Number of replicates 2.0, Standard deviation 0.494827603753062 %) came to 9.8%; the inhibition (PRVABC59, Concentration 198.0 uM, Number of replicates 2.0, Standard deviation 0.23449629857012413 %) came out at 15.6%. `Cc1c(NC(=O)c2cc(Cl)ccc2NS(=O)(=O)c2ccc(Oc3ccccc3Cl)cc2)c(=O)n(-c2ccccc2)n1C`: the inhibition under setting [2] worked out at 25.5%. With `CC(C)(O)CN(Cc1ccccc1)C(=O)c1cc(Cl)ccc1NS(=O)(=O)c1ccc(Oc2ccccc2Cl)cc1`, under setting [2], the inhibition turned out to be 22.2%. `O=C(Nc1ccc(F)cc1I)c1cc(Cl)ccc1NS(=O)(=O)c1ccc(Oc2ccccc2Cl)cc1`: the inhibition under setting [2] worked out at 26.2%. Regarding `O=C(NC1CCN(C(=O)NC2CCCCC2)CC1)c1cc(Cl)ccc1NS(=O)(=O)c1ccc(Oc2ccccc2Cl)cc1`, under setting [2], the inhibition came out at 12.7%. Take `Cc1cc(N)cc(CNC(=O)Cc2cccc3c(CO)cc(C)nc23)c1`: the inhibition runs as follows: (PRVABC59, Concentration 49.95 uM, Number of replicates 2.0, Standard deviation 1.6254724488978287 %) 7.61%; (PRVABC59, Concentration 99.9 uM, Number of replicates 2.0, Standard deviation 2.5640510708053585 %) 31.2%. In the case of `Cc1ccc2[nH]cc(CCNC(=O)C3CCN(c4ccc(C=O)cc4)CC3)c2c1`, the inhibition under setting [1] was determined as 12.9%.

For `CNC(=O)c1cc(Cl)ccc1N(C)S(=O)(=O)c1ccc(Oc2ccccc2Cl)cc1`, the inhibition by setting is: (PRVABC59, Concentration 49.5 uM, Number of replicates 2.0, Standard deviation 2.1633243985477817 %) 5.01%; (PRVABC59, Concentration 99.01 uM, Number of replicates 2.0, Standard deviation 2.204675683146184 %) 6.67%; (PRVABC59, Concentration 198.0 uM, Number of replicates 2.0, Standard deviation 3.6933219286886705 %) 9.59%.

In the case of `O=Cc1ccc(N2CCC(C(=O)N[C@H]3CC(=O)N(c4ccccc4Cl)C3)CC2)cc1`, the inhibition under setting [1] amounted to 26.5%. For `CC(C)Nc1nc2ccc(C(=O)Nc3ccc(-c4cc[nH]c4)cc3)cc2[nH]1`, the inhibition came to 8.43% (PRVABC59, Concentration 49.5 uM, Number of replicates 2.0, Standard deviation 1.4042524076086362 %) and 11.3% (PRVABC59, Concentration 99.01 uM, Number of replicates 2.0, Standard deviation 2.5882696614840826 %). Take `Cn1cc(NC(=O)c2ccccc2C(F)(F)F)c(-c2ccc(O)cc2)n1`: the inhibition (PRVABC59, Concentration 49.5 uM, Number of replicates 2.0, Standard deviation 1.758470706884018 %) was -3.57%; the inhibition (PRVABC59, Concentration 99.01 uM, Number of replicates 2.0, Standard deviation 0.898985703829002 %) is -1.76%; the inhibition (PRVABC59, Concentration 198.0 uM, Number of replicates 2.0, Standard deviation 1.9123879130233277 %) is -1.31%. For `CC(C)c1ccc2c(c1)CC[C@H]1[C@](C)(CNC(=O)c3cc(Cl)ccc3NS(=O)(=O)c3ccc(Oc4ccccc4Cl)cc3)CCC[C@]21C`, the inhibition under setting [2] turned out to be 27.8%.

With `CC(C)CN1CCN(C(=O)c2cc(Cl)ccc2NS(=O)(=O)c2ccc(Oc3ccccc3Cl)cc2)[C@@H](C)C1=O`, under setting [2], the inhibition turned out to be 1.19%. Take `O=Cc1ccc(N2CCC(C(=O)N[C@H](c3ccccc3)c3ccco3)CC2)cc1`: the inhibition under setting [3] amounted to 12.4%. With `CN(Cc1nc2ccsc2c(=O)[nH]1)C(=O)C1CCN(c2ccc(C=O)cc2)CC1`, the inhibition under setting [1] is 20.6%.

For `COc1cc(Br)ccc1NC(=O)c1cc(Cl)ccc1NS(=O)(=O)c1ccc(Oc2ccccc2Cl)cc1`, under setting [2], the inhibition worked out at 56.4%. The same measure, in the same setting: to `Cc1cc(C)c(CNC(=O)c2cc(Cl)ccc2NS(=O)(=O)c2ccc(Oc3ccccc3Cl)cc2)c(=O)[nH]1` belongs 15.9%. Regarding `Cc1cc(CO)c2cccc(Cc3cccc(C(=O)N[C@H]4C[C@@H](O)C4)c3)c2n1`, the inhibition reads like this: (PRVABC59, Concentration 49.95 uM, Number of replicates 2.0, Standard deviation 0.15730350258545148 %) -6.02%; (PRVABC59, Concentration 99.9 uM, Number of replicates 2.0, Standard deviation 1.5625510183608542 %) -0.827%. In the case of `CN1CCN(Cc2cccc(CNC(=O)c3cc(Cl)ccc3NS(=O)(=O)c3ccc(Oc4ccccc4Cl)cc3)c2)CC1`, under setting [2], the inhibition was -2.59%. `Cc1nc(NC(=O)c2cc(Cl)ccc2NS(=O)(=O)c2ccc(Oc3ccccc3Cl)cc2)ccc1Br`: the inhibition under setting [2] was 42.3%. For `O=C(c1cc(Cl)ccc1NS(=O)(=O)c1ccc(Oc2ccccc2Cl)cc1)N(Cc1c(F)cccc1Cl)C1CC1`, the inhibition under setting [2] turned out to be 18.6%. On to `O=Cc1ccc(N2CCC(C(=O)NCc3cc(F)cc(Cl)c3)CC2)cc1`, for which the inhibition under setting [3] came out at 5.44%. Consider `CCn1c(CNC(=O)c2ccc(O)c(NC(=O)c3ccncc3F)c2C)n[nH]c1=O`, for which the inhibition is, setting by setting: (PRVABC59, Concentration 49.5 uM, Number of replicates 2.0, Standard deviation 0.8304284599294235 %) -2.63%; (PRVABC59, Concentration 99.01 uM, Number of replicates 2.0, Standard deviation 0.5414958818785077 %) -0.777%; (PRVABC59, Concentration 198.0 uM, Number of replicates 2.0, Standard deviation 0.23639933414751227 %) 0.661%.

Take `Cc1cc(NC(=O)c2cc(Cl)ccc2NS(=O)(=O)c2ccc(Oc3ccccc3Cl)cc2)c(F)cc1Br`: the inhibition under setting [2] came to 31.3%. In the case of `COc1cc(-c2ccccc2C(=O)Nc2cnn(C)c2)ccc1O`, the inhibition by setting is: (PRVABC59, Concentration 49.5 uM, Number of replicates 2.0, Standard deviation 0.23383160062225883 %) -0.446%; (PRVABC59, Concentration 99.01 uM, Number of replicates 2.0, Standard deviation 1.185346396890086 %) 0.346%; (PRVABC59, Concentration 198.0 uM, Number of replicates 2.0, Standard deviation 1.4497559575754835 %) -0.045%.

Turning to `Cc1[nH]nc2ccc(C(=O)NC3(C)CN(C(=O)c4cnc(N)s4)C3)c(Cl)c12`, the inhibition runs as follows: (PRVABC59, Concentration 49.5 uM, Number of replicates 2.0, Standard deviation 2.21182016402466 %) 0.035%; (PRVABC59, Concentration 99.01 uM, Number of replicates 2.0, Standard deviation 2.523819796559285 %) 2.83%; (PRVABC59, Concentration 198.0 uM, Number of replicates 2.0, Standard deviation 5.711384853620139 %) 8.57%. Turning to `O=S(=O)(c1ccc(Oc2ccccc2Cl)cc1)N1CCc2[nH]c3ccc(Cl)cc3c2C1`, the inhibition turned out to be 4.51% (PRVABC59, Concentration 49.5 uM, Number of replicates 2.0, Standard deviation 2.489781748820796 %); 6.8% (PRVABC59, Concentration 99.01 uM, Number of replicates 2.0, Standard deviation 1.8608073011659256 %); 11.2% (PRVABC59, Concentration 198.0 uM, Number of replicates 2.0, Standard deviation 2.526780444079781 %). Regarding `Cc1cc(CO)c2cccc(Cc3ccccc3C(=O)Nc3cccc(C(N)=O)c3)c2n1`, the inhibition (PRVABC59, Concentration 49.95 uM, Number of replicates 2.0, Standard deviation 0.5610502494199251 %) is -2.71% and the inhibition (PRVABC59, Concentration 99.9 uM, Number of replicates 2.0, Standard deviation 0.1363299663609753 %) amounted to 0.693%. Consider `CCCCN(Cc1ccc(F)cc1)C(=O)C1CCN(c2ccc(C=O)cc2)CC1`, for which, under setting [1], the inhibition was 28.4%. Still for that read-out and setting: to `O=Cc1ccc(N2CCC(C(=O)Nc3ccc(Br)c(Cl)c3Cl)CC2)cc1` belongs 20.9%. As for `O=C(c1cc(Cl)ccc1NS(=O)(=O)c1ccc(Oc2ccccc2Cl)cc1)N1CCC[C@H](c2nc3ccccc3o2)C1`, the inhibition under setting [2] worked out at 14.6%. Regarding `Cc1[nH]c(=O)c(NC(=O)c2cc(Cl)ccc2NS(=O)(=O)c2ccc(Oc3ccccc3Cl)cc2)cc1Br`, the inhibition under setting [2] stood at 25.9%. As for `Cc1ccc(CN(CCN(C)C)C(=O)C2CCN(c3ccc(C=O)cc3)CC2)s1`, the inhibition under setting [1] was 25.1%. `Cc1cc(CO)c2cccc(Cc3ccccc3NC(=O)[C@@H](N)CC(N)=O)c2n1`: the inhibition (PRVABC59, Concentration 49.95 uM, Number of replicates 2.0, Standard deviation 1.5014501209453077 %) turned out to be 18.1% and the inhibition (PRVABC59, Concentration 99.9 uM, Number of replicates 2.0, Standard deviation 0.5242366631195996 %) stood at 40.6%.

With `O=Cc1ccc(N2CCC(C(=O)N[C@@H](CO)Cc3ccccc3)CC2)cc1`, under setting [1], the inhibition was 25.7%.

Consider `Cn1cc(CNC(=O)c2ccccc2CN)cn1`, for which the inhibition is -2.74% (PRVABC59, Concentration 49.5 uM, Number of replicates 2.0, Standard deviation 1.6446243983296642 %); -2.88% (PRVABC59, Concentration 99.01 uM, Number of replicates 2.0, Standard deviation 1.7345169670013365 %); -3.41% (PRVABC59, Concentration 198.0 uM, Number of replicates 2.0, Standard deviation 2.800969211584616 %).

Turning to `O=C(N[C@@H](c1ccccc1)c1ccc(Br)cc1)c1cc(Cl)ccc1NS(=O)(=O)c1ccc(Oc2ccccc2Cl)cc1`, the inhibition under setting [2] worked out at 8.89%.

Take `O=C(Cc1c[nH]c2cnccc12)N1CC[C@H](c2c[nH]c3ccccc23)C1`: the inhibition runs as follows: (PRVABC59, Concentration 49.5 uM, Number of replicates 2.0, Standard deviation 5.539795761025617 %) -0.574%; (PRVABC59, Concentration 99.01 uM, Number of replicates 2.0, Standard deviation 4.134550795134549 %) 4.72%; (PRVABC59, Concentration 198.0 uM, Number of replicates 2.0, Standard deviation 2.9999169193656203 %) 12%.
